# Some of the results follow.
# Legend:
# Test in all cases: glycan array binding signal (z-score within array); higher = stronger binding
# Conditions in all cases: glycan notation: IUPAC condensed, linker removed
# [1] = target: Gal(b1-3)GlcNAc(b1-6)[Gal(b1-3)]GalNAc
# Outline: (§1)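 From the Consortium for Functional Glycomics database, 3228 arrays were curated, keeping only those whose protein sequence was available. Binding is given as a within-array Z-score averaged across arrays sharing a protein sequence and across linkers. Negative Z-scores can be read as non-binding.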
# Gal(b1-3)GlcNAc6S = target: Gal(b1-3)GlcNAc6S
# Outline: as §1
# [2] = target: Gal(b1-3)[Fuc(a1-4)]GlcNAc
# Outline: as §1
# [3] = target: Gal(b1-3)[Fuc(a1-4)]GlcNAc(b1-2)Man
# Outline: as §1
# [4] = target: Gal(b1-3)[Fuc(a1-4)]GlcNAc(b1-2)Man(a1-3)[Gal(b1-3)[Fuc(a1-4)]GlcNAc(b1-2)Man(a1-6)]Man(b1-4)GlcNAc(b1-4)[Fuc(a1-6)]GlcNAc
# Outline: as §1
# [5] = target: Gal(b1-3)[Fuc(a1-4)]GlcNAc(b1-3)Gal(b1-3)[Fuc(a1-4)]GlcNAc
# Outline: as §1
# [6] = target: Gal(b1-3)[Fuc(a1-4)]GlcNAc(b1-3)Gal(b1-4)[Fuc(a1-3)]GlcNAc
# Outline: as §1
# [7] = target: Gal(b1-3)[Fuc(a1-4)]GlcNAc(b1-6)GalNAc
# Outline: as §1
# [8] = target: Gal(b1-3)[GlcNAc(b1-6)]GalNAc
# Outline: as §1
# [9] = target: Gal(b1-3)[Neu5Ac(a2-6)]GalNAc
# Outline: as §1
# [10] = target: Gal(b1-3)[Neu5Ac(a2-6)]GlcNAc(b1-4)Gal(b1-4)Glc
# Outline: as §1
# [11] = target: Gal(b1-3)[Neu5Ac(b2-6)]GalNAc
# Outline: as §1
# Gal(b1-4)Gal = target: Gal(b1-4)Gal
# Outline: as §1
# [12] = target: Gal(b1-4)GalNAc(a1-3)[Fuc(a1-2)]Gal(b1-4)GlcNAc
# Outline: as §1
# [13] = target: Gal(b1-4)GalNAc(b1-3)[Fuc(a1-2)]Gal(b1-4)GlcNAc
# Outline: as §1
# Gal(b1-4)Glc = target: Gal(b1-4)Glc
# Outline: as §1
# Gal(b1-4)Glc6S = target: Gal(b1-4)Glc6S
# Outline: as §1
# Gal(b1-4)GlcNAc = target: Gal(b1-4)GlcNAc
# Outline: as §1
# [14] = target: Gal(b1-4)GlcNAc(a1-6)Gal(b1-4)GlcNAc
# Outline: as §1
# Gal(b1-4)GlcNAc(b1-2)Man = target: Gal(b1-4)GlcNAc(b1-2)Man
# Outline: as §1
# [15] = target: Gal(b1-4)GlcNAc(b1-2)Man(a1-3)Man(b1-4)GlcNAc(b1-4)GlcNAc
# Outline: as §1
# [16] = target: Gal(b1-4)GlcNAc(b1-2)Man(a1-3)[Gal(b1-4)GlcNAc(b1-2)Man(a1-6)]Man(b1-4)GlcNAc(b1-4)GlcNAc
# Outline: as §1
# [17] = target: Gal(b1-4)GlcNAc(b1-2)Man(a1-3)[Gal(b1-4)GlcNAc(b1-2)Man(a1-6)]Man(b1-4)GlcNAc(b1-4)[Fuc(a1-6)]GlcNAc
# Outline: as §1
# [18] = target: Gal(b1-4)GlcNAc(b1-2)Man(a1-3)[Gal(b1-4)GlcNAc(b1-2)Man(a1-6)][Gal(b1-4)GlcNAc(b1-4)]Man(b1-4)GlcNAc(b1-4)[Fuc(a1-6)]GlcNAc
# Outline: as §1
# [19] = target: Gal(b1-4)GlcNAc(b1-2)Man(a1-3)[Gal(b1-4)GlcNAc(b1-2)Man(a1-6)][GlcNAc(b1-4)]Man(b1-4)GlcNAc(b1-4)[Fuc(a1-6)]GlcNAc
# Outline: as §1
# [20] = target: Gal(b1-4)GlcNAc(b1-2)Man(a1-3)[GlcNAc(b1-2)Man(a1-6)]Man(b1-4)GlcNAc(b1-4)GlcNAc
# Outline: as §1
# [21] = target: Gal(b1-4)GlcNAc(b1-2)Man(a1-3)[GlcNAc(b1-4)][Gal(b1-4)GlcNAc(b1-2)Man(a1-6)]Man(b1-4)GlcNAc(b1-4)GlcNAc
# Outline: as §1
# [22] = target: Gal(b1-4)GlcNAc(b1-2)Man(a1-3)[Man(a1-6)]Man(b1-4)GlcNAc(b1-4)GlcNAc
# Outline: as §1
# [23] = target: Gal(b1-4)GlcNAc(b1-2)Man(a1-6)Man(b1-4)GlcNAc(b1-4)GlcNAc
# Outline: as §1
# [24] = target: Gal(b1-4)GlcNAc(b1-2)Man(a1-6)[GlcNAc(b1-2)Man(a1-3)]Man(b1-4)GlcNAc(b1-4)GlcNAc
# Outline: as §1
# [25] = target: Gal(b1-4)GlcNAc(b1-2)Man(a1-6)[Man(a1-3)]Man(b1-4)GlcNAc(b1-4)GlcNAc
# Outline: as §1
# [26] = target: Gal(b1-4)GlcNAc(b1-2)[Gal(b1-4)GlcNAc(b1-4)]Man(a1-3)[Gal(b1-4)GlcNAc(b1-2)Man(a1-6)]Man(b1-4)GlcNAc(b1-4)GlcNAc
# Outline: as §1
# [27] = target: Gal(b1-4)GlcNAc(b1-2)[Gal(b1-4)GlcNAc(b1-4)]Man(a1-3)[Gal(b1-4)GlcNAc(b1-2)[Gal(b1-4)GlcNAc(b1-6)]Man(a1-6)]Man(b1-4)GlcNAc(b1-4)GlcNAc
# Outline: as §1
# [28] = target: Gal(b1-4)GlcNAc(b1-2)[Gal(b1-4)GlcNAc(b1-4)]Man(a1-3)[GlcNAc(b1-4)][Gal(b1-4)GlcNAc(b1-2)Man(a1-6)]Man(b1-4)GlcNAc(b1-4)GlcNAc
# Outline: as §1
# [29] = target: Gal(b1-4)GlcNAc(b1-2)[Gal(b1-4)GlcNAc(b1-4)]Man(a1-3)[GlcNAc(b1-4)][Gal(b1-4)GlcNAc(b1-2)[Gal(b1-4)GlcNAc(b1-6)]Man(a1-6)]Man(b1-4)GlcNAc(b1-4)GlcNAc
# Outline: as §1
# [30] = target: Gal(b1-4)GlcNAc(b1-2)[Gal(b1-4)GlcNAc(b1-6)]Man(a1-6)[Gal(b1-4)GlcNAc(b1-2)Man(a1-3)]Man(b1-4)GlcNAc(b1-4)GlcNAc
# Outline: as §1
# [31] = target: Gal(b1-4)GlcNAc(b1-2)[Gal(b1-4)GlcNAc(b1-6)]Man(a1-6)[Gal(b1-4)GlcNAc(b1-2)Man(a1-3)]Man(b1-4)GlcNAc(b1-4)[Fuc(a1-6)]GlcNAc
# Outline: as §1
# [32] = target: Gal(b1-4)GlcNAc(b1-2)[Gal(b1-4)GlcNAc(b1-6)]Man(a1-6)[GlcNAc(b1-4)][Gal(b1-4)GlcNAc(b1-2)Man(a1-3)]Man(b1-4)GlcNAc(b1-4)GlcNAc
# Outline: as §1
# [33] = target: Gal(b1-4)GlcNAc(b1-2)[Gal(b1-4)GlcNAc(b1-6)]Man(a1-6)[GlcNAc(b1-4)][Gal(b1-4)GlcNAc(b1-2)[Gal(b1-4)GlcNAc(b1-4)]Man(a1-3)]Man(b1-4)GlcNAc(b1-4)[Fuc(a1-6)]GlcNAc
# Outline: as §1
# [34] = target: Gal(b1-4)GlcNAc(b1-3)Gal(b1-3)GalNAc
# Outline: as §1
# [35] = target: Gal(b1-4)GlcNAc(b1-3)Gal(b1-3)GlcNAc
# Outline: as §1
# [36] = target: Gal(b1-4)GlcNAc(b1-3)Gal(b1-4)Glc
# Outline: as §1
# [37] = target: Gal(b1-4)GlcNAc(b1-3)Gal(b1-4)GlcNAc
# Outline: as §1
# [38] = target: Gal(b1-4)GlcNAc(b1-3)Gal(b1-4)GlcNAc(b1-2)Man(a1-3)[Gal(b1-4)GlcNAc(b1-3)Gal(b1-4)GlcNAc(b1-2)Man(a1-6)]Man(b1-4)GlcNAc(b1-4)GlcNAc
# Outline: as §1
# [39] = target: Gal(b1-4)GlcNAc(b1-3)Gal(b1-4)GlcNAc(b1-2)Man(a1-3)[Gal(b1-4)GlcNAc(b1-3)Gal(b1-4)GlcNAc(b1-2)Man(a1-6)]Man(b1-4)GlcNAc(b1-4)[Fuc(a1-6)]GlcNAc
# Outline: as §1
binder,measurement,setting,value
rCnSL-A (Clitocybe nebularis) (protein) VNPNLPGPNDVFVGFRGTNNIVGAIYEKDGIKDTPLNNGADAEMGPGSYITDGLFTARIFASGSAGNNPGTTATVCKIYASGVQWRGAPKGYIPVAYFGNGPTAEQRRQTYLRTLGLPGTAIRFGNLNTNPGQGPTAPRQMVVPPGPLRSLLKASCFPAADTRLPQTLHYFEKRVDWNIITAADSQTWGH,glycan array binding signal (z-score),[1],-0.196
same,glycan array binding signal (z-score),Gal(b1-3)GlcNAc6S,-0.206
same,glycan array binding signal (z-score),[2],-0.209
same,glycan array binding signal (z-score),[3],0.042
same,glycan array binding signal (z-score),[4],-0.187
same,glycan array binding signal (z-score),[5],-0.147
same,glycan array binding signal (z-score),[6],-0.167
same,glycan array binding signal (z-score),[7],-0.166
same,glycan array binding signal (z-score),[8],-0.23
same,glycan array binding signal (z-score),[9],-0.032
same,glycan array binding signal (z-score),[10],-0.194
same,glycan array binding signal (z-score),[11],-0.245
same,glycan array binding signal (z-score),Gal(b1-4)Gal,-0.221
same,glycan array binding signal (z-score),[12],-0.275
same,glycan array binding signal (z-score),[13],-0.256
same,glycan array binding signal (z-score),Gal(b1-4)Glc,-0.203
same,glycan array binding signal (z-score),Gal(b1-4)Glc6S,-0.219
same,glycan array binding signal (z-score),Gal(b1-4)GlcNAc,-0.215
same,glycan array binding signal (z-score),[14],2.03
same,glycan array binding signal (z-score),Gal(b1-4)GlcNAc(b1-2)Man,-0.181
same,glycan array binding signal (z-score),[15],-0.164
same,glycan array binding signal (z-score),[16],-0.203
same,glycan array binding signal (z-score),[17],0.142
same,glycan array binding signal (z-score),[18],0.115
same,glycan array binding signal (z-score),[19],0.061
same,glycan array binding signal (z-score),[20],-0.241
same,glycan array binding signal (z-score),[21],0.118
same,glycan array binding signal (z-score),[22],-0.103
same,glycan array binding signal (z-score),[23],-0.216
same,glycan array binding signal (z-score),[24],-0.213
same,glycan array binding signal (z-score),[25],-0.099
same,glycan array binding signal (z-score),[26],2.67
same,glycan array binding signal (z-score),[27],1.78
same,glycan array binding signal (z-score),[28],0.142
same,glycan array binding signal (z-score),[29],0.528
same,glycan array binding signal (z-score),[30],0.425
same,glycan array binding signal (z-score),[31],1.27
same,glycan array binding signal (z-score),[32],0.925
same,glycan array binding signal (z-score),[33],0.621
same,glycan array binding signal (z-score),[34],-0.149
same,glycan array binding signal (z-score),[35],-0.188
same,glycan array binding signal (z-score),[36],0.188
same,glycan array binding signal (z-score),[37],-0.174
same,glycan array binding signal (z-score),[38],1.2
same,glycan array binding signal (z-score),[39],0.835
